In PubChem BioAssay AID493208 (National Center for Advancing Translational Sciences (NCATS), 2011):
About 340 (0.77%) of roughly 44,000 compounds were called active. Not shown: some 5% with an inconclusive outcome. The call rests on the fitted dose curve; in most records, active means well fitted inhibition curve with a large enough effect; inconclusive means small, poorly fitted or top-dose-only effect; inactive means flat fitted curve, though single readings scatter. The list shows a part of the results.

Assay: Acumen qHTS Assay for Inhibitors of the mTORC1 Signaling Pathway in MEF (Tsc2-/-, p53-/-) Cells: Sytravon;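 further: plate controls were DMSO for no effect and rapamycin for full effect; nearly all actives have a fitted effect of over 50% in size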
Settings: phospho-rpS6 immunofluorescence/PI, 24 h; series mostly up to 38.3 µM; activity change, negative = inhibition: at the top concentration
Summary of the method: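 Read-out: phospho-S6 Alexa-488 intensity over PI intensity per well, scored as % active cells using thresholds from rapamycin (7.5 nM) and DMSO controls. Tsc2-/-, p53-/- MEFs exposed to compound for 24 h; PI cell count recorded as viability.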

Compound	activity change, negative = inhibition
CCOc1ccc(OCC)c(NS(=O)(=O)c2ccc3c(c2)CCCN3C(C)=O)c1	inactive: -3.12%
CCCCn1c(C2CC(=O)N(c3ccc(OCC)cc3)C2)nc2ccccc21 (configuration not stated)	inactive: -4.38%
O=C(OCC1CCCO1)c1ccc2c(c1)N(Cc1c(F)cccc1Cl)C(=O)c1ccccc1S2(=O)=O (configuration not stated)	inactive: 0.808%
Cc1cc(C)c(NC(=O)c2ccc3nc(C(C)C)oc3c2)c(C)c1	inactive: 2.73%
CCOCCn1c(=NC(=O)c2ccc3c(c2)OCCO3)sc2cc(OCC)ccc21	inactive: -4.34%
Cc1cccc(S(=O)(=O)c2cn(Cc3ccc(F)cc3)c3cc(N4CCOCC4)c(F)cc3c2=O)c1	inactive: -0.0113%
O=C(Nc1ccccc1C(F)(F)F)C1CCN(c2nnc(-n3cccc3)s2)CC1	inactive: 2.99%
Cc1ccc(Cl)cc1N1CCN(C(=O)c2cnc3c(-c4ccc(F)cc4)c(C)nn3c2C)CC1	inactive: 0%
CCC(C(=O)NC1CCCCC1)n1nc(C)c2sc3ccccc3c2c1=O (configuration not stated)	inactive: -1.41%
CCN(CC)S(=O)(=O)c1ccc2c(c1)c(=O)c(C(=O)N1CCN(c3cc(C)ccc3C)CC1)cn2C	inactive: -0.413%
O=C(Cn1cc(SCc2ccc(F)cc2)c2ccccc21)N1CCCC1	inactive: -2.96%
COc1ccc(NCc2cccn2-c2nnc(N3CCC(C)CC3)s2)c(OC)c1	inactive: -12.8%
Cc1cccc(-c2nc(S(=O)(=O)c3ccccc3)c(N3CCN(c4ccccc4)CC3)o2)c1	inactive: 6.49%
CSc1ccc(-c2nc3cc(C)ccn3c2Nc2ccc(C)cc2)cc1	inactive: -1.24%
CCc1ccc(NC(=O)C(=O)NCCc2sc(-c3ccc(C)cc3)nc2C)cc1	inactive: 0.258%
O=C(CSc1nc2c(c(=O)[nH]1)CCC2)Nc1cc(C(F)(F)F)ccc1Cl	inactive: -0.354%
Cn1ccc2c(OCC(=O)NCc3ccc(F)cc3)cccc2c1=O	inactive: 1.46%
Cc1ccc(C(=O)c2cn(Cc3ccccc3)c3cc4c(cc3c2=O)OCCO4)cc1	inactive: -16.1%
CCc1cccc(NC(=O)CSc2nccn2C)c1	inactive: 5.53%
COc1c(Cl)cc(Cl)cc1C(=O)Nc1cccc2cccnc12	inactive: 4.05%
CCOC(=O)c1cc(S(=O)(=O)Nc2cc(C)c(Cl)cc2OC)[nH]n1	inactive: 0.206%

Compound	activity change, negative = inhibition
CC(C)OCCCNC(=O)c1c2c(nc3ccccc13)C(=O)N(C1CCCCC1)C2	inactive: -10.4%
Cc1ccn2c(Nc3ccc(C(C)C)cc3)c(-c3ccsc3)nc2c1	inactive: -7.57%
CC(=O)c1ccc(NC(=O)CSc2nnc(NC(=O)NC3CCCCC3)s2)cc1	inactive: -1.7%
CCOC(=O)c1cc(-c2ccccc2)n(CC(=O)Nc2cc(Cl)c(OC)cc2OC)c1C	inactive: -7.67%
Cc1cc(C)c(NC(=O)Nc2sc3nc4n(c(=O)c3c2C)CCC(C)CC4)c(C)c1 (configuration not stated)	inactive: -0.124%
CCCCCOc1ccccc1Cn1c(=O)oc2ccc(C)cc21	inactive: 2.59%
Cc1ccc(Nc2c(-c3ccc(N4CCOCC4)cc3)nc3ncccn23)c(C)c1	inactive: -5%
COCCNC(=O)CCSc1nc(-c2ccc(OC)cc2)cc(C(F)(F)F)n1	inactive: -4.65%
Cc1nn(C(C)C(=O)Nc2cccc(F)c2)c(=O)c2c1sc1ccccc12 (configuration not stated)	inactive: 2.29%
CC1CCCN(Cc2c(O)ccc3c(=O)c(-c4ccccc4Cl)c(C(F)(F)F)oc23)C1 (configuration not stated)	inactive: -2.19%
Cc1cc(C)c(NS(=O)(=O)c2ccc3c(c2)NC(=O)CCS3)c(C)c1	inactive: -4.5%
O=C(COc1ccc(Cl)cc1)N(Cc1ccco1)c1ccccn1	inactive: -4.37%
COc1ccc(C2=NN(S(C)(=O)=O)C(c3cn(-c4ccccc4)nc3-c3cccs3)C2)cc1 (configuration not stated)	inactive: -1.83%
Cc1ccc(S(=O)(=O)N(CC(O)Cn2c3ccccc3c3ccccc32)c2cccc(C(=O)N(C)C)c2)cc1 (configuration not stated)	inactive: -20.7%
COc1ccc(C(=O)NCC(c2ccc3c(c2)OCO3)N2CCOCC2)cc1 (configuration not stated)	inactive: -3.02%
Cc1ccc(CN2C(=O)c3ccccc3Sc3ccc(C(=O)NCc4ccco4)cc32)cc1	inactive: 11.8%
CCCn1c(=N)c(C(=O)NCc2cccnc2)cc2c(=O)n3cccc(C)c3nc21	inactive: 0.457%
COc1cccc(-c2ccnc3c(-c4ccc(F)cc4)c(C)nn23)c1	inactive: -7.54%
Cc1ccc(Oc2nc3c(c(=O)n(Cc4ccccc4)c(=O)n3C)n2C)cc1C	inactive: -17.3%
Cc1oc2ncnc(N3CCOCC3)c2c1C(=O)N1CCN(c2cccc(C(F)(F)F)c2)CC1	inactive: 1.77%
CCN(C(=O)C1CCC(CNS(=O)(=O)c2cccc3nsnc23)CC1)c1cccc(C)c1 (configuration not stated)	inactive: -5.83%

Compound	activity change, negative = inhibition
CCN(C(=O)C1CCC(CNS(=O)(=O)c2cccc3nsnc23)CC1)c1ccccc1 (configuration not stated)	inactive: -4.96%
CC1(C)CC(=O)c2cc(C(=O)Nc3ccc(Br)cc3)c(=O)[nH]c2C1	inactive: 11%
COc1ccc(NC(=O)C2=C(C)Nc3ncnn3C2c2ccc(C)o2)cc1 (configuration not stated)	inactive: -8.39%
Cc1ccc(-c2nc3ccccn3c2Nc2ccc3c(c2)OCCO3)s1	inactive: -17.9%
O=C(Cc1ccc(NC(=O)N2CCSc3ncccc32)cc1)NCc1ccccc1	inactive: -5.41%
Cc1cc(C)cc(NC(=O)Cn2c(=O)n(C(C)C)c(=O)c3oc4ccccc4c32)c1	inactive: -0.142%
COc1ccc(OCC(=O)N2CCN(C(=O)c3cc(OC)c(OC)c(OC)c3)CC2)cc1	inactive: -9.66%
COc1ccc(/C=C/C(=O)N2CCC(c3nc4ccccc4o3)CC2)cc1OC	inactive: 1.09%
CCOc1ccccc1NC(=O)N(C)CCc1c(C)nn(CC)c1C	inactive: 0%
CCOc1ccc(C2N3CC4(C(C)C)CN2CC(C(C)C)(C3)C4=O)cc1OC (configuration not stated)	inactive: 3.27%
Cc1ccc(NC(=O)c2ccc(=O)n(CC(=O)Nc3c(C)cc(C)cc3C)n2)cc1	inactive: 2.75%
Cc1ccc(COc2ccc3oc(-c4ccccc4)c(C(=O)O)c3c2)cc1	inactive: -7.53%
COc1ccc(-n2nc(C(=O)Nc3ccc(Br)cc3C)c3c4ccccc4n(C)c3c2=O)cc1	inactive: 0.777%
COc1ccc(C(=O)N2CC(=O)Nc3ccc(C)cc3C2c2ccccc2)cc1OC (configuration not stated)	inactive: -2.16%
CCOc1ccc(C2C=C(c3cccc(OC)c3)Nc3nnnn32)cc1 (configuration not stated)	inactive: -9.5%
O=C(COc1ccccc1)NCC(c1cccs1)S(=O)(=O)c1ccc(Cl)cc1 (configuration not stated)	inactive: -7.2%
CC(C)(C)c1ccc(C(=O)NNc2ncnc3c2cnn3-c2ccccc2)cc1	inactive: 0.282%
CCN(C(=O)Cn1c(SCC(=O)Nc2ccc(OC)cc2)nc2ccccc21)c1cccc(C)c1	inactive: 12.6%
COc1cccc(C(=O)Nc2ccc(-n3nncc3-c3ccc(Br)cc3)cc2)c1OC	inactive: -1.39%
Cc1cc(C)n2c(Nc3ccccc3C)c(-c3cccs3)nc2n1	inactive: 6.79%
